Assay results as given in article PMC7819943, “Rice protein-binding microarrays: a tool to detect cis-acting elements near promoter regions in rice”.
The list shows a part of the results.

These sequences were tested against T1, OsWOX13 (Oryza sativa, UniProt Q5QMM3 1-267) (assay: protein-binding microarray (RPBM); PBS, 2% BSA, 51.3 ng/ul salmon testes DNA, 50 uM zinc acetate, 200 nM TF, 25 C, 1 h; high values mean tight binding). Settings: protein: recombinant; tags: N-terminal polyhistidine and DsRed monomer fusion (pET32a); label: CyDye5-dUTP incorporated in the synthesized complementary strand; 3' TTTTT single-stranded linker to array surface; dsDNA, one strand shown.
T1 sequence: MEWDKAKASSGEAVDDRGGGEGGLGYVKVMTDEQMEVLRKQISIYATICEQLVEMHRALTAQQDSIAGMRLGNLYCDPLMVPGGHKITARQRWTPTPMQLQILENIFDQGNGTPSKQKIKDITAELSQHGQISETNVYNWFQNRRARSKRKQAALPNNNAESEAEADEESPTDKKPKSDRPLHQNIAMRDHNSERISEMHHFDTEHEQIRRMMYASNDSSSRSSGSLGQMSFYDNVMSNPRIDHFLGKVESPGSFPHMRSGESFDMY
Method in brief: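 Polyhistidine-tagged DsRed fusions of transcription factors, joined at the N-terminus, were expressed in E. coli BL21-CodonPlus and isolated on Ni–NTA. They were incubated at 200 nM for 1 h at 25 °C on a custom Agilent array, double-stranded and BSA-blocked, in PBS with 2% BSA, salmon testes DNA and 50 µM zinc acetate. The binding signal is per-feature fluorescence intensity (arbitrary units) read on an Axon 4000B scanner after washing.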

| Sequence | binding signal |
| --- | --- |
| CGTAGATAATTACATAAACCTTTAAGCACAACATAGATAACGGAGTCACCTAGTGCAG | 9750 fluorescence intensity (a.u.) |
| TTTGTTGATTTGTTGCTATAGTACTTCAACAATACCGAGCCGGAGTCACCTAGTGCAG | 32200 fluorescence intensity (a.u.) |
| TCCTAACTAAAATTCTCCTTAATTTGATATCACTCATATTCGGAGTCACCTAGTGCAG | 6210 fluorescence intensity (a.u.) |
| GTCATTTAAAATTATTAGGAAAATAGACAAAATATGATACCGGAGTCACCTAGTGCAG | 4320 fluorescence intensity (a.u.) |
| GCACCGTTGATGAAATTGCCGTTAGAATTTCGATCATCCCCGGAGTCACCTAGTGCAG | 4810 fluorescence intensity (a.u.) |
| ATCACGCTAACAAATGTAATTAAATATTGTTTCACTGAATCGGAGTCACCTAGTGCAG | 5620 fluorescence intensity (a.u.) |
| AAAAGAAGTTAATTATAATTAATTGTGATAAGAGGATAGACGGAGTCACCTAGTGCAG | 29400 fluorescence intensity (a.u.) |
| CTAACTGTGATAATTAAACACTAATACTCTACTACTGGTACGGAGTCACCTAGTGCAG | 17900 fluorescence intensity (a.u.) |
| CAGAACTAATTATTATATTTTATTGTGTGATATTATAGAGCGGAGTCACCTAGTGCAG | 10400 fluorescence intensity (a.u.) |
| AAGTTTGATTGAAATTGGAACGATGTGACGGAAAAGTTGACGGAGTCACCTAGTGCAG | 35100 fluorescence intensity (a.u.) |
| AATTAATTGTCTGATCAGTGATCTTTATTAACTGTCGACGCGGAGTCACCTAGTGCAG | 28400 fluorescence intensity (a.u.) |
| ATGTGATTATTTCGTCCTGCTGTAAACTTGGTGCAAGTGACGGAGTCACCTAGTGCAG | 18600 fluorescence intensity (a.u.) |
| ACTTATCGCAAATTTATAATTTCAAATTTATCTTTTCGGACGGAGTCACCTAGTGCAG | 10300 fluorescence intensity (a.u.) |
| TATGATGTGACAAAATTTGAATGATTTTGTGACTTGGACCCGGAGTCACCTAGTGCAG | 30200 fluorescence intensity (a.u.) |
| AATTTCAATCAAAATCCAAACTTTACACTGAACTAAACACCGGAGTCACCTAGTGCAG | 17700 fluorescence intensity (a.u.) |
| TAACTAACAAATTGAAAATGAAATTTATATCTGTAGTCAACGGAGTCACCTAGTGCAG | 18400 fluorescence intensity (a.u.) |
| TTGGATTGGTTTCTTTCTGCTCTGTTGCAGCTCCGTTGTCCGGAGTCACCTAGTGCAG | 9000 fluorescence intensity (a.u.) |
| GTTGATGTCGATCGATTGACGGGACGTCGACATCAAGTCGCGGAGTCACCTAGTGCAG | 10700 fluorescence intensity (a.u.) |
| TTTATAAATTATGTTTCATCTGTAAATATGACATTTCACACGGAGTCACCTAGTGCAG | 12000 fluorescence intensity (a.u.) |
| GCAGATGATTATTACGCCAAGGAGGGCAGCAACTATGGAACGGAGTCACCTAGTGCAG | 11800 fluorescence intensity (a.u.) |
| CGATTCGAAACGGATTGATTGCCCCTGCTTTATTATCGAACGGAGTCACCTAGTGCAG | 18900 fluorescence intensity (a.u.) |
| ATATAATAGATAGATGGTGGATCTAGAGCATTCTATCAAGCGGAGTCACCTAGTGCAG | 21400 fluorescence intensity (a.u.) |
| CTATTAGATTAGCTATAAATGAATTGGAGCTAGCAGTTGGCGGAGTCACCTAGTGCAG | 28100 fluorescence intensity (a.u.) |
